This is one part of the list. At the low end of the ranking, values are background and their order means little. The protein was read in a cell extract, so binding may be indirect.

For the test, the target named is T1, HNF4alpha8 (COS-7 nuclear extract) (UniProt P41235-5).
T1 sequence: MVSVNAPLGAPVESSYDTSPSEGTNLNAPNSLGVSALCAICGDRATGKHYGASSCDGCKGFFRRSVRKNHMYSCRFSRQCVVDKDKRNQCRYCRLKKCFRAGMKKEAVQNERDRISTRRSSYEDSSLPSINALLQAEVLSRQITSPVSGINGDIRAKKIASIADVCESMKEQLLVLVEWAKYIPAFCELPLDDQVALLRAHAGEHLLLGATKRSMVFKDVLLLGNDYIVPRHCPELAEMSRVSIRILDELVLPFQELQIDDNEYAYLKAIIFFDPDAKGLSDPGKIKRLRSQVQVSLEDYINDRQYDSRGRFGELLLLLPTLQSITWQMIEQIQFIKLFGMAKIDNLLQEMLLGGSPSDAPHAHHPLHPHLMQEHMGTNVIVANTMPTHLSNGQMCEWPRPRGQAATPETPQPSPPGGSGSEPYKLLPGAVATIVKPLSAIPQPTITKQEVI
The test is described as follows: protein-binding microarray. As to conditions: COS-7 nuclear extract on double-stranded Agilent 4x180k PBM; binding buffer, salt, pH and temperature not given; high values mean tight binding; double strand, one strand shown; sequences stand for … in …GCCTAGGGAGATTAGAGTATCGGTCGA
GAGATCAGGATACCAAGGCTCAGAGGTCAA: the binding signal (log2 normalized intensity) came to 4.27.
As for AGGACCTGACATTCTCCACTTGGTGACTGT, the figure is -0.319; as for CTTTCAGCCTCTCTGCAAACATTTATTTTG, -0.117; as for GAGATCAGGTCTCTTTTATGTACCACCGTA, 1.34.
As for GAGGGTAACAATGCTGATGGGGACCACAGA, the figure is -1.43.
As for GTCGACCTTTAAACGTTTGCTGGATCAGCA, the figure is 2.6; as for ATAGCTCAGGTCCAAGGAACCTCACGCGCT, -1.26; as for TTTGAAGGTTAAAGTCCATTTTTGAGGACC, 6.47.
For TTATGATATGAAGCATTGCTTGAGTCACTT, the binding signal (log2 normalized intensity) is 0.112.
In the case of TGCTGTGTGTGTGTGTGTGTGTGTGTGTGT it was 3.44; in that of CAAGTGCCAACAAACTCAATCCTGGCCTCT, -0.0333.
As for ATGCAACCTTTGTCCTCATTGAGCCCTCCC, the figure is 4.19; as for GGTGAAGGATGGAATGCTGAAGGGAAGGCT, -1.13; as for GAAGTACAACTTCAGCAATGAAAGATGTTT, -1.01.
As for TAAGCAAACATTCCTCCCTCCCTCTTCCCT, the figure is 2.71; as for GGTGAGGGTGAGGGTGAGGGTTAGGGGTTA, 1.07.
As for AATAATTTGAAGTTTAGAGATGCCTATAGG, the binding signal (log2 normalized intensity) stood at 0.0674.
As for CAGTGCTGACCTACCTGACCTGGCATACTA, the figure is 0.335; as for GAAGAAGTCATCCATCATTCATACATTTGC, -0.417; as for AACAATGCAAGATAAAAGTGAGCAATGCTG, -1.33.
In the case of GCAGGCAGAGGAACAGAGGGGTCTGAGCAC, the binding signal (log2 normalized intensity) was -1.19.
Turning to CCCACAGTGCATCTGATAAGGTTGTTAAGT, the binding signal (log2 normalized intensity) was 0.889.
In the case of TCCAAAGCCTCATCTGAGATAAGGCAAGTC it was -1.38.
On to GTCCAAGTTGGTGAGAACAGAGTCTCCGAG, for which the binding signal (log2 normalized intensity) is -0.509.
As for ATTTGTGAAGGTGAATTTCAAGAATCTAAT, the figure is -1.43; as for AAGGGATCAGAAATTGATTTGTAACCTGCA, 1.09.
As for TGGAGTTAGCTGTCTTTCTGATAAGATTGG, the figure is 1.02.
In the case of GCTGCCAAGCGTCAGTCATACAGAGCTGTC it was -1.41.
Take GTCACAGCCTGGTTCTTGTAGGCCCCTGTG: the binding signal (log2 normalized intensity) turned out to be 1.21.
In the case of CCATTTTGGACTTTGACCTCCAAAATTATA it was 10.9; in that of TTCTCTCAACCTCTCTGGGGGATGGGTCCA, 3.21; in that of AAAGGGAATTTTGGACAAGGTAACCCCCAA, 4.01.
As for GGCCCTTTGCAGCCCGAGCTGCTGGAACAG, the figure is -1.32; as for CAAAGTTCAAGGTCCAGCCTACCCACCCAC, 4.96; as for GGACTTTTTTTTGCCTAACTGCTGCATGTC, 0.235.
In the case of ACCAAAACACTTGTGTCAACCGTGTCAACA it was -1.2; in that of GGGCTATTGACAAAGACCAGTGCTCTTTCT, -1.16.
As for GGAGTGACCCTGGGAGCAAAGGTCAAGAGT, the binding signal (log2 normalized intensity) stood at 7.55.
For the sequence TATGAAATCTTATCAGAAGCTTACATATCA, the binding signal (log2 normalized intensity) is -1.02.
In the case of AAAGTCCACCGTGGTGTAGAGGCCCTGCAG it was -0.136; in that of CCGCACCCAGCTTTCATCTCGGCTGGCTAC, -1.35.
As for TACCATGGGAGACCTCAGGGGTCATCAGAT, the figure is 3.08; as for GCCTTTCTAGAACCAGAATTCCAGAGAAGC, -1.4; as for TTGTAGCCAAACTCACAGCTTTTATGTCAA, -0.853.
As for TACTAACTGGACTTTATCTACCATTAGTCT, the binding signal (log2 normalized intensity) turned out to be 2.25.
As for GAACCGTGATTATCATCTTTTACTTAGCAA, the figure is -1.24.
In the case of GAGCTGGCGGCGCGGCCGGAGCGGCGGACC it was -1.26; in that of TCCAACCTGTTCTTTTGAGCTGTGGTTAAG, 1.73; in that of AGTATCCAGCTCCTCTTCACACCATGCTCT, -1.29.
As for TTAAGTTGACTCCAATGCTCGTTGACCATT, the binding signal (log2 normalized intensity) worked out at 2.4.
As for ACCCTCTCTGGATGCAGGTCGCCGGGAAAA, the figure is 0.74; as for CATCGGACTTTGATCTGCCACATACCTTTA, 5.04; as for TGAGACTTCCCAGCTGCTGGTCAAAGGGCA, 6.21.
As for CGCTCCCAGAAGCCTCCGGTGTACCTCGCT, the figure is -1.31; as for TCCTATCCTAGGGTTAAAGTCTACAACCAG, 3.97; as for TTACTCATTCCCAGGTCGGGCCGGAGAGGC, 0.864.
As for GAGTTTAGAATTTGAACTATGGTCATCTGA, the figure is 3.35; as for GTGGAGGCCAGCGCCAGGCTGGGGGCAGAG, -1.37.
For the sequence GTCTGCCTGACTCCAGAGTCCAAACTGGGA, the binding signal (log2 normalized intensity) was 3.18.
As for CACTGCAAATGATGTCTCTCATTGGAATGA, the figure is 0.57; as for GCAGAGTCCTGGGGAGGGTAAGCATGCTTG, -1.02; as for TGCTAATGTCCTTTGGAGTGCTTTCATCTT, 1.63.
As for GTGGGTGGGAAAGGGTGCTCCAGGCAAAGG, the figure is -0.586; as for TGTTCCTCTGCCCCTCATCGAGGCCATCCC, 2.65; as for GGGTAAAACCAAACTGCAGCTGCTGCACTG, -1.28.
As for CTGCACACACTCACAGAACACAGTGTTTGC, the figure is -1.26.
For the sequence TCCTGGCAGTGTGGAAAAGCTGGCTGGCGG, the binding signal (log2 normalized intensity) is -1.34.
For GGTGACCCCTCAGTTTTTCTCTTTTGACCT, the binding signal (log2 normalized intensity) came to 4.77.
As for TACTGACTAAAGGTTAAACATGTACTCTGT, the figure is 3.1.
Turning to TTTGATAGGTGGTCTGTTTGTGAAACAGTG, the binding signal (log2 normalized intensity) was 1.79.
Regarding CCGAGGTCCTGGGGCGATGCTTCCAAAGTC, the binding signal (log2 normalized intensity) was -1.34.
In the case of ACTCTGGGGCAATAACCCTAGACACCGGGT, the binding signal (log2 normalized intensity) is -1.32.

(Values after article PMC10726135.)
